# Test results published in article PMC6919601, “Identification of Plasmodium dipeptidyl aminopeptidase allosteric inhibitors by high throughput screening” (PLoS ONE, 2019).
# The whole screen tested about 110,000 compounds, of which about 230 (0.21%) showed an effect of 50% or more. The list shows a part of the results.
# Molecular target: DPAP1 (Plasmodium falciparum, UniProt Q8IIJ9)
# Test: primary screen, percent inhibition; read by cleavage of a fluorogenic dipeptide substrate; higher = more effect of the substance
# Parameters: species or system P. falciparum D10 trophozoite lysates; single well
# 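Also: 30 min substrate incubation versus DMSO and 10 µM JCP410 controls.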
# Sequence of DPAP1 (Q8IIJ9 whole entry, looked up): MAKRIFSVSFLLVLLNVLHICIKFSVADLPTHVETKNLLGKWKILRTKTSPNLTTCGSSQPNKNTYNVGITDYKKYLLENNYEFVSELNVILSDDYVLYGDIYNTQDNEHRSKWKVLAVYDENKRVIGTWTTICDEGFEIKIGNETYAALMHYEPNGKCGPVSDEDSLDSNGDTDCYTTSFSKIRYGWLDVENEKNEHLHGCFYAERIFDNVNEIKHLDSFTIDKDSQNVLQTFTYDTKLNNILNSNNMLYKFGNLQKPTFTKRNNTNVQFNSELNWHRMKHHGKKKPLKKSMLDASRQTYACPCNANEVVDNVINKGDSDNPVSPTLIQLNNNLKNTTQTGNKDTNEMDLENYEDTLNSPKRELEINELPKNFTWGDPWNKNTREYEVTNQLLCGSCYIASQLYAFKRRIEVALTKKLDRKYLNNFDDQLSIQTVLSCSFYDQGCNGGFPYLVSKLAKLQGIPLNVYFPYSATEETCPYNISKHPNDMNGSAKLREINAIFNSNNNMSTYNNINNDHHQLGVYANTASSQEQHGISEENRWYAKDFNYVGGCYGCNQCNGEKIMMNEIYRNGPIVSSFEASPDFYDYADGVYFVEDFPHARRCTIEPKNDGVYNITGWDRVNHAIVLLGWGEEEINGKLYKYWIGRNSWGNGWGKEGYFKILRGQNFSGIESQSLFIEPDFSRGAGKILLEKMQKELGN
row,SMILES,% Inhibition @ 10 uM [%]
1,O=C1/C(=C/c2ccccc2F)CCC1C1CCCC1 (stereo not shown),27.4
2,COc1ccccc1N1CCN(C(=O)CN(C)S(=O)(=O)c2ccc(C)cc2)CC1,-4.43
3,Fc1ccccc1CN1CCN(c2ncccn2)CC1,1.55
4,CCc1nnc(NC(=O)Cc2coc3c(C)c(C)ccc23)s1,2.62
5,Cc1nn(CC(=O)NC(C)CCc2ccccc2)c(=O)c2cc3sccc3n12 (stereo not shown),1.8
6,O=C1CC(Cc2ccc(Cl)cc2)C(=O)N1C1CCCCC1 (stereo not shown),-6.7
7,CCCN(CCC)S(=O)(=O)c1ccc(C(=O)Nc2cccc(C)c2)cc1,3.53
8,COc1ccccc1C(=O)NC1(C(F)(F)F)C(=O)N(CC(C)C)C2=C1C(=O)CC(C)(C)C2 (stereo not shown),-6.36
9,CCCCSc1nnc2c(n1)[nH]c1ccccc12,2.86
10,CSCCC(C(=O)Nc1ccccc1)N1C(=O)c2ccccc2C1=O (stereo not shown),4.11
11,CCC(C)NC(=O)CCC(=O)n1ncc2cc(Cl)ccc21 (stereo not shown),-4.68
12,CCCn1c2ccccc2c2cnn(CC(=O)NCCC(C)C)c(=O)c21,2.59
13,CCOC(=O)c1sc2ncnc(OC)c2c1C,-0.631
14,O=c1oc(-c2ccccc2Cl)nc2sc3c(c12)CCC3,-3.27
15,Cc1ccc2c(Cl)c(C(=O)N3CCN(C)CC3)sc2c1,-3.85
16,CC1CN(Cc2ccccc2[N+](=O)[O-])CC(C)O1 (stereo not shown),-2.36
17,CCOC(=O)c1noc2c1COc1ccccc1-2,-1.51
18,CCCCc1ccc2nc3sc(C(=O)O)cc3cc2c1,-3.13
19,COc1ccc(-c2cc(=O)c3ccccc3n2C)cc1,-5.1
20,COCc1cc(C)n(CC(=O)Nc2cccc3ccccc23)c(=O)c1C#N,-2.77
21,CCCNC(=O)c1ccc(CSc2nc3ccncc3[nH]2)cc1,3.4
22,Cc1ccc2oc(=O)c3cnn(CC(=O)N4CCCCC4C)c3c2c1 (stereo not shown),-0.0115

row,SMILES,% Inhibition @ 10 uM [%]
1,O=C(/C(=C/c1cccnc1)n1cncn1)c1ccc(Cl)cc1Cl,-1.71
2,Cc1ccc(NC(=O)c2ccc(Br)o2)cc1C,-4.86
3,O=C(NC(Cc1ccccc1)C(=O)O)c1cccnc1Cl (stereo not shown),11.8
4,O=C(O)CCC(=O)Nc1ccc(-c2nc3cc(C(=O)c4ccccc4)ccc3[nH]2)cc1,14.2
5,Cc1cccc(NS(=O)(=O)c2ccc(NC(=O)c3ccc([N+](=O)[O-])cc3)cc2)c1,2.55
6,Sc1ncnc2sc3c(c12)CCCC3,38
7,CC1CC(=O)C2=C(C1)OC(N)=C(C#N)C2c1ccc(F)cc1F (stereo not shown),-3.13
8,c1ccc(-n2nnnc2-c2ccc(-c3nnnn3-c3ccccc3)cc2)cc1,-5.34
9,Cc1ccc2onc(CNC(=O)NCCC3=CCCCC3)c2c1,-3.73
10,COC(=O)CCC(=O)Nc1cccc2c(NC(=O)CCC(=O)OC)cccc12,-2.66
11,CN(C)CCNc1ncnc2c1cnn2-c1ccc(Cl)cc1,-4.82
12,CCN1C(=O)N/C(=C/c2ccccc2OC)C1=O,-11.2
13,COc1ccccc1[C@@H](C)C[C@H](NC(=O)c1ccc(-c2ccccc2Cl)cc1)C(=O)NCC#N,-1.5
14,COc1ccc(OC)c(C2C=C(c3ccc(C)cc3)Nc3ncnn32)c1 (stereo not shown),-5.19
15,O=C(Nc1ccc(F)c(Cl)c1)c1sc2ccccc2c1Cl,2.78
16,O=C1C2C3CCC(O3)C2C(=O)N1c1cccc(F)c1 (stereo not shown),-5.67
17,Cc1ccc(-c2cccc(N)c2)o1,0.132
18,O=S(=O)(NCc1ccccc1Cl)c1ccc2[nH]c3c(c2c1)CCCC3,-2.22
19,COc1ccc(-c2onc(C)c2C)cc1S(=O)(=O)NCCc1ccc(Cl)cc1,-3.37
20,CCOCCCNC(=O)c1cc2c(=O)n3ccccc3nc2n1C,1.1
21,OCCN(CCO)CC1CC=CCC1 (stereo not shown),-0.603
22,Oc1ccccc1-c1noc(-c2ccccc2O)n1,0.526

row,SMILES,% Inhibition @ 10 uM [%]
1,Cc1onc(-c2ccccc2)c1C(=O)Nc1sc2c(c1C(N)=O)CCCCC2,15
2,COc1ccccc1/C=C/CN1CCOCC1,-1.78
3,CCN(CC)C(=O)c1sc2ccccc2c1Cl,-2.42
4,COc1ccc(C(=O)C2=C(O)C(=O)N(c3ncccn3)C2c2cccc(Br)c2)cc1 (stereo not shown),1.61
5,CCN(Cc1ccncc1)C(=O)c1cccc([N+](=O)[O-])c1C,1.04
6,O=S(=O)(c1cc(Cl)ccc1Cl)N1CCCC1,-4.91
7,Cc1nc2nc(CN)nn2c(C)c1CCC(=O)O,-2.39
8,CC(=O)Nc1ccc(-c2cc(-c3cccc(NC(C)=O)c3)nc(-c3ccccc3)n2)cc1,5.64
9,COc1cc(C(=O)Nc2ccc(C)cc2C)ccc1OC(F)F,3.24
10,NC(=S)NC1CCS(=O)(=O)C1 (stereo not shown),0.884
11,Cn1cnc([N+](=O)[O-])c1Sc1cn2c(n1)CCC2,-3.48
12,Cc1oc2cc3oc(=O)c(CCC(=O)NCc4ccc(F)cc4)c(C)c3cc2c1C,-2.57
13,O=C(c1ccccc1)c1ccccc1C(=O)N(C1CCCCC1)C1CCCCC1,1.17
14,CO/C(O)=C1/C(C)=NC2=C(C(=O)CC(c3ccccc3)C2)C1c1ccc(Cl)cc1 (stereo not shown),-0.0953
15,CCC(=O)Nc1ccc(Cl)c(NC(=O)c2ccccc2F)c1,-3.23
16,COc1ccccc1Nc1cc(C)nc2cc(Cl)ccc12,-15.1
17,COc1cccc(CNc2nc3nc4c(c(O)n3n2)CCC4)c1,-8.21
18,CCC(=O)NS(=O)(=O)c1cccnc1Nc1ccccc1Cl,0.245
19,CCCOC(=O)C1=C(C)NC(=O)NC1c1ccc(Cl)cc1Cl (stereo not shown),-4.18
20,O=C1NC(=O)C(=Cc2c[nH]nc2-c2ccccc2)C(=O)N1,-2.77
21,Cc1cc(SCc2ccccc2)n2ncnc2n1,4.9
22,O=C(NCCCCCCNC(=O)c1ccco1)c1ccco1,3.34

row,SMILES,% Inhibition @ 10 uM [%]
1,OCC1CCCN1Cc1ccc(F)cc1F (stereo not shown),-1.41
2,c1ccc(Cn2cc(Cn3nnc(-c4ccccc4)n3)nn2)cc1,-4.35
3,CC(NC(=O)CSc1nnc2c(n1)[nH]c1ccccc12)c1ccccc1 (stereo not shown),0.0719
4,NS(=O)(=O)c1ccc(NC(=S)NC(=O)c2cccnc2)cc1,-5.33
5,Cc1cc(C)c2c(-n3cccc3)c(C(=O)N3CCCCC3)sc2n1,-4.91
6,O=C(c1ccccc1Cl)N1CCOCC1,1.55
7,CCOC(=O)c1c(NC(C)=O)sc2c(O)c([N+](=O)[O-])cc([N+](=O)[O-])c12,-4.06
8,O=C(NC1CCCCC1)N1CCN(C2CCCCC2)CC1,-2.28
9,CC1=CC(C)OC(c2ccc(OCC(O)CN3CCCCC3)cc2)C1 (stereo not shown),34.2
10,Cc1ccc(C2=C(C#N)C(N)=C(C#N)C3=CCCC32)c(C)c1 (stereo not shown),-2.51
11,CCCSc1nnc(NC(=O)Cc2coc3ccc(C)cc23)s1,-4.19
12,Cc1ccc(Cl)cc1NC(=O)c1ccccc1C,0.247
13,O=C(NCCCCCCNC(=O)c1cncc(Br)c1)c1ccc(Br)nc1,-11.3
14,O=C1CCCc2c1n(CCN(Cc1ccccc1)Cc1ccccc1)c1ccc([N+](=O)[O-])cc21,-0.216
15,CCc1nc2ccc(C(=O)NCc3cc(Br)ccc3OC)cc2nc1CC,7.01
16,CCOc1ccc(NC(=O)c2cccs2)cc1,3.03
17,Cc1ccc(N(CC(=O)N2CCN(Cc3ccccc3)CC2)S(=O)(=O)c2ccccc2)cc1,-2.6
18,COc1cc(C2CC(=O)NC(SCc3ccccc3)=C2C#N)cc(Br)c1O (stereo not shown),-1.26
19,O=C(Nc1ccccc1)c1cccc(NC(=O)c2cccc([N+](=O)[O-])c2)c1,5.42
20,CCO/C(O)=C1/C(C)=NC(=S)NC1c1ccc(OCC(=O)N2CCCCC2)cc1 (stereo not shown),3.39
21,Cc1cc(N(C)C)c(=O)n(-c2ccccc2)n1,5.74
22,CCCCOc1ccc(NC(=O)CSc2ncccn2)cc1,0.145

row,SMILES,% Inhibition @ 10 uM [%]
1,COc1ccc(C2=NN(C(=O)C3CCCCC3)C(c3ccccc3)C2)cc1 (stereo not shown),-1.17
2,Cc1oc(-c2cccs2)nc1CSc1nnc(C)n2c1cc1occc12,3.35
3,O=C(CN1CCCCC1)N1CCc2ccccc21,-0.414
4,COc1cc2c(cc1/C=C1/SC(Nc3cccc(C)c3)=NC1=O)OCO2,-7
5,COc1ccc(CNc2ccc(F)cc2C)cc1C,-0.233
6,COc1cc(Br)cc2cc(C(=O)NCCCN(C)C)c(=O)oc12,5.93
7,CCc1ccc(-c2nc3cc(NC(=O)c4ccc([N+](=O)[O-])c(C)c4)ccc3o2)cc1,-2.42
8,COCCNC(=O)C1CCCN(S(=O)(=O)c2ccc(C)cc2)C1 (stereo not shown),0.635
9,CC(=O)c1sc(N2C(=O)c3oc4ccccc4c(=O)c3C2c2ccc(C(C)C)cc2)nc1C (stereo not shown),2.16
10,Cn1c(=O)[nH]c(=O)c2c1ncn2CCNCc1ccco1,0.0289
11,CCC(C)NC(=O)CS(=O)Cc1nc(-c2ccccc2F)oc1C (stereo not shown),3.79
12,OC1CN2CCC1C(c1ccccc1)C2 (stereo not shown),4.09
13,CCOC(=O)C1=C(CN2CCCC2)NC(=O)NC1c1ccccc1 (stereo not shown),0.44
14,COc1cc(C2C3=C(O)CCCC3=Nc3nc(SCc4ccccc4F)nc(O)c32)ccc1O (stereo not shown),0.413
15,COc1cc(CCC(=O)NCCNC(C)=O)cc(OC)c1OC,3.47
16,O=C1/C(=C/c2cc(Cl)cc([N+](=O)[O-])c2O)Sc2ccccc21,0.986
17,CCC(C)NC(=O)C1CC1c1ccccc1 (stereo not shown),-1.78
18,CC(C)(C)OC(=O)NC(C#N)c1ccccc1 (stereo not shown),0.528
